Source: PubChem BioAssay AID493014 (National Center for Advancing Translational Sciences (NCATS), 2011)
The campaign covered roughly 340,000 compounds. About 170 (0.05%) were called active. Roughly 26% stayed inconclusive and do not appear here. Calls follow the shape of the dose curve; as a rule, active = well fitted inhibition curve with a large enough effect in the signal ratio, with a control signal flat (not every such curve was filed as active); inconclusive = small, poorly fitted or top-dose-only effect, or effect the other way, or a change in a side signal; inactive = flat fitted curve, though single readings scatter; the % refers to the signal ratio. The list shows a part of the results, in another mix than the full data.

Assay: qHTS Assay to Find Inhibitors of Chronic Active B-Cell Receptor Signaling;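 as to activity change, negative = inhibition: plate controls were basal doxycycline-induced cells for no effect and cells given 10 µM MG132 for full effect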
Conditions: ABC-DLBCL IkBa-CBG/CBR reporter, luminescence ratio (green luciferase fused to IkBa over red control in TMD8 lymphoma cells), 4 h; series mostly up to 46.1 µM; activity change, negative = inhibition: at the top concentration
Procedure, shortened: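 Doxycycline induced both beetle luciferases in TMD8 lymphoma cells; IKK-driven degradation limits the IkappaBalpha-fused green signal, while red luminescence normalises for cell number and nonspecific effects. Compounds tested up to 46 uM, 4 hrs.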
Potency is read from the fitted curve at half-maximal effect.

SMILES | activity change, negative = inhibition | Potency
O=C(NCCO)/C(=C\c1cccc([N+](=O)[O-])c1)NC(=O)c1ccco1 | inactive: -0.321% | –
Oc1cc(-c2ccncc2)cc2cccnc12 | inactive: -13.2% | –
COc1ccc2c(c1)c(/C=N/Nc1nc3ccccc3[nH]1)c(C)n2C | – | active: 15.8 µM
CCO[C@H]1OC(C(N)=O)=C[C@@H](C2CCCCC2)[C@@H]1CCCO | inactive: -12.1% | –
CC(=O)C[C@@H](O)CC(=O)[C@@H]1OC(=O)CCCCCCCCc2ccccc21 | inactive: -0.321% | –
O=C(NCCCn1ccnc1)/C(=C\c1cccs1)NC(=O)c1ccco1 | inactive: 2.08% | –
C=CC[C@H](CC(=O)N(CCO)Cc1ccccc1)C(=O)N[C@@H](C)COC(=O)[C@@H](CC=C)Cc1ccc(F)cc1 | inactive: -1.12% | –
Cc1ccc(C(=O)NN2C(=O)C3C4C=CC([C@@H]3C2=O)C42CC2)cc1 (stereo partly drawn) | inactive: -1.81% | –
OCC1OC(n2cnc3c(NC4CCCCC4)ncnc32)C(O)C1O (stereo not drawn) | – | active: 12.6 µM
CC(=O)OCC(=O)C1(O)CCC2C3CCC4=CC(=O)C=CC4(C)C3C(O)CC21C (stereo not drawn) | inactive: -25.6% | –
Cc1ccccc1CN1C(=O)c2ccccc2Sc2ccc(C(=O)O)cc21 | inactive: -1.11% | –
C=CC[C@H](CC(=O)OC(C)(C)C)C(=O)OC[C@H]1CCCN1C(=O)[C@H](CC=C)CC(=O)NCCO | inactive: 1.21% | –
CC1=C/C(=C(\c2ccc(O)c(C)c2)c2ccccc2S(=O)(=O)O)C=CC1=O | inactive: 0.161% | –
CC/C(=N\NC(=S)NC(C)C)c1ccc(OC(F)F)cc1 | – | active: 22.4 µM
CCO[C@@H]1OC(C(=O)NCc2nc3ccccc3[nH]2)=C[C@H](c2ccc(C(F)(F)F)cc2)[C@H]1CCCO | inactive: -16.8% | –
Cc1cc(NC(=O)CCN2C(=O)/C(=C/c3ccccc3Cl)SC2=S)no1 | inactive: 3.92% | –
O=C(C1=C[C@H](c2csc3ccccc23)C[C@H](OCc2ccc(CO)cc2)O1)N1CCN(Cc2ccc3c(c2)OCO3)CC1 | inactive: -14.3% | –
Cn1c(=O)c2c(ncn2CC(=O)N/N=C/C=C\c2ccccc2[N+](=O)[O-])n(C)c1=O | inactive: -6.74% | –
O=C1/C(=C\c2ccsc2)N2CCC1CC2 | inactive: 0.387% | –
CCOC(=O)c1c(CN2CCOCC2)n(C)c2cc(Br)c(O)c(CN(C)C)c12 | inactive: -1.88% | –
O=C(O)Cn1c(O)c(C=Nc2ccccc2)sc1=S | inactive: -0.967% | –
O=C1OC[C@@H]2CCCN2C(=O)[C@H](CC(=O)N(CCO)Cc2ccccc2)C/C=C\CC[C@@H]1Cc1ccc(F)cc1 | inactive: 0.374% | –

SMILES | activity change, negative = inhibition | Potency
COc1ccccc1N1C(=O)N(CC(=O)C(C)(C)C)c2ccccc2S1(=O)=O | inactive: -2.58% | –
O=C(Nc1ccccc1Cl)N1CCSc2ccccc21 | inactive: -0.834% | –
O=C1OC[C@@H]2CCCN2C(=O)[C@@H](CC(=O)N(CCO)Cc2ccccc2)C/C=C\C[C@H]1Cc1ccc(F)cc1 | inactive: -0.149% | –
O=C(O)CSc1cccc2cccnc12 | inactive: 4.1% | –
COc1ccc(C(=O)N/C(=C/c2cccc3ccccc23)C(=O)NCCc2c[nH]c3ccccc23)cc1OC | inactive: -8.35% | –
COC(=O)/C=C1/N/C(=N\c2nc(C)cc(C)n2)N(c2ccc(Cl)cc2)C1=O | inactive: -0.334% | –
CC1CC2C3CCC4=CC(=O)C=CC4(C)C3(F)C(O)CC2(C)C1(O)C(=O)CO (stereo not drawn) | inactive: -7.99% | –
COc1cccc(-c2ccc3ncnc(NCc4cc(C)cs4)c3c2)c1 | inactive: -10.1% | –
COc1ccc(NS(=O)(=O)c2ccc3ccccc3c2)c2ncccc12 | – | active: 3.16 µM
C=CCc1ccc(OCCOc2ccc(/C=N/n3cnnc3)cc2OCC)c(OC)c1 | – | active: 23.1 µM
O=C(NCc1ccc2c(c1)OCO2)c1cc([N+](=O)[O-])ccc1N1CCCCC1 | – | active: 23.1 µM
O=C1N[C@@H](Cc2ccccc2)COC(=O)[C@H](Cc2ccc(F)cc2)CC/C=C/C[C@@H]1CC(=O)N(CCO)Cc1ccccc1 | inactive: 0.18% | –
CCN1/C(=C2/OC(=S)N(C)C2=O)Sc2ccccc21 | inactive: -1.27% | –
O=C1NCCOC(=O)[C@H](Cc2ccc(F)cc2)C/C=C\C[C@H]1CC(=O)N(CCO)Cc1ccccc1 | inactive: -0.325% | –
Nc1nc(Cl)nc2c1ncn2[C@H]1C[C@H](O)[C@@H](CO)O1 | inactive: 2.03% | –
CC(=O)Nc1ccc(S(=O)(=O)NC(C)C(=O)OCC(=O)NC2CCCC2)cc1 (stereo not drawn) | inactive: 4.85% | –
COc1ccc(C(F)(F)F)cc1N/C=C\c1nnnn1-c1ccc(C)cc1 | inactive: 8.57% | –
COc1ccccc1/C=C\C=N\NC(=O)CCn1nnc2ccccc21 | inactive: -0.0277% | –
Cc1ccc(C(=O)N/C(=C/c2cccs2)C(=O)N2CCCCCC2)cc1 | inactive: -0.262% | –
COC(=O)C1=C(C)N(Cc2ccccc2)C(=NCCc2c[nH]c3ccccc23)N[C@H]1c1ccccc1 | inactive: 0.548% | –
O=C(NC1CC1)C1=C[C@H](C2CCCCC2)C[C@H](OCc2ccc(CO)cc2)O1 | inactive: 3.6% | –
C[C@@H](N)C(=O)NC[C@H]1O[C@@H](n2cnc3c(N)ncnc32)[C@H](O)[C@@H]1O | inactive: 4.52% | –

SMILES | activity change, negative = inhibition | Potency
Cc1cn(C2C=CC(CO)O2)c(=O)[nH]c1=O (stereo not drawn) | inactive: -0.889% | –
CCOC(=O)c1c(C)nc(C)c(C(=O)OCC)c1-c1ccc(OC)cc1 | inactive: -3.32% | –
Cc1onc(-c2c(Cl)cccc2Cl)c1C(=O)N[C@@H]1C(=O)N2[C@@H]1SC(C)(C)[C@@H]2C(=O)O | – | inactive
COc1ccc([C@@H]2CC(=O)c3c(O)cc(O[C@@H]4OC(CO[C@@H]5OC(C)[C@H](O)[C@@H](O)[C@H]5O)[C@@H](O)[C@H](O)[C@H]4O)cc3O2)cc1O (stereo partly drawn) | inactive: 0.677% | –
O=c1cc(-c2ccc(O)cc2)oc2cc(O)c([C@@H]3O[C@H](CO)[C@@H](O)[C@H](O)[C@H]3O)c(O)c12 | inactive: 5.29% | –
O=C(O)c1ccc(CSc2nnc(-c3ccco3)o2)cc1 | – | active: 18.4 µM
COC(=O)[C@H]1[C@H]2C[C@H]3c4[nH]c5ccccc5c4CCN3C[C@@H]2CC[C@@H]1O | – | inactive
COc1ccc2c(c1OC)C(=O)OC2C1c2c(cc3c(c2OC)OCO3)CCN1C (stereo not drawn) | – | inactive
O=C(C1=C[C@H](c2coc3ccccc3c2=O)C[C@H](OCCCCO)O1)N1CCOCC1 | inactive: -2.6% | –
COc1ccc(C2C(=O)N(C3CCCCC3)CC(=O)N2C2CCCCC2)cc1 (stereo not drawn) | inactive: -3.36% | –
C[C@@H]1C=C(C(=O)NC2CC2)O[C@H](OCc2ccc(CO)cc2)C1 | inactive: -9.18% | –
CCCOC(=O)CCCC[C@H]1SC[C@@H](NC(=O)OC)[C@H]1NC(=O)OC | inactive: -2.32% | –
O=C(C[C@@H]1C/C=C/CC[C@@H](Cc2ccc(F)cc2)C(=O)OC[C@H](Cc2ccccc2)NC1=O)N[C@H](CO)Cc1ccccc1 | inactive: 4.27% | –
C[C@@H]1CC[C@]2(O[C@@H](CCO)C[C@H](O)[C@H]2O)O1 | inactive: -0.458% | –
CCN1C(=NCCCCO)N[C@@H](c2cccc(C(F)(F)F)c2)C(C(=O)OC)=C1C | inactive: -11.7% | –
CCOC(=O)c1ccc(NC(=O)N2CC(C)OC(C)C2)cc1 (stereo not drawn) | inactive: -3.38% | –
CCN(CC)CCOc1ccc(/C(=C(\Cl)c2ccccc2)c2ccccc2)cc1 | inactive: -9.88% | –
Cc1ccc(S(=O)(=O)Nc2c(C)n(C)n(-c3ccccc3)c2=O)cc1 | inactive: 3.45% | –
CCOC(=O)/C(C(C)=O)=C1\OC(=O)c2ccccc21 | inactive: 0.766% | –
C#CCNC(=O)C1=C[C@@H](c2coc3ccccc3c2=O)C[C@@H](OCc2ccc(CO)cc2)O1 | inactive: -11.8% | –
O=S1(=O)C=C(Sc2nc3cc(Cl)ccc3o2)c2ccccc21 | – | active: 6.31 µM
COc1cccc(-c2nc(N3CCN(Cc4ccccc4)CC3)c3ccccc3n2)c1O | inactive: 4.97% | –

SMILES | activity change, negative = inhibition | Potency
CCn1c(=O)cc(SCC(=O)N2CCN(c3ccccn3)CC2)c2ccccc21 | – | active: 16.4 µM
O=C1C2C3c4ccccc4C(c4ccccc43)C2C(=O)N1c1nc(-c2ccccc2)cs1 (stereo not drawn) | inactive: -4.06% | –
COc1ccc(N(CCC#N)C(=O)/C(C#N)=C/c2cccs2)cc1 | inactive: -1.24% | –
COc1ccc(NS(=O)(=O)c2ccc(N)cc2)nn1 | inactive: 6.24% | –
Cc1cc(NC(=O)Nc2cccc3ccccc23)no1 | inactive: -4.01% | –
C[C@H](NC(=O)c1ccccc1Cl)C(=O)OCc1cn2cc(Cl)ccc2n1 | inactive: -0.172% | –
c1cncc(CNc2ncnc3ccc(-c4ccc5c(c4)OCO5)cc23)c1 | inactive: -10.8% | –
C=CCC[C@@H](Cc1ccc(F)cc1)C(=O)OC[C@H](C)NC(=O)[C@@H](CC=C)CC(=O)N[C@@H](CO)Cc1ccccc1 | inactive: 0.537% | –
CN1CCc2c(c3c(n2C)CCN(C)[C@@H]3c2cccnc2)[C@H]1c1cccnc1 | inactive: 5.78% | –
Cc1ccc(CNC(=O)C2CCN(S(=O)(=O)N3CCCCC3)CC2)cc1 | inactive: -1.21% | –
COc1ccc(-c2n[nH]c(=S)n2/N=C/C=C/c2ccccc2OC)cc1 | inactive: -7.29% | –
Cc1noc(C)c1-c1csc(N2CCC(C(N)=O)CC2)n1 | inactive: 8.68% | –
CCOC(=O)/C(C#N)=C1/C(=O)N(Cc2ccccc2)c2ccccc21 | inactive: 4.69% | –
COc1ccc(CNC(=O)/C(C#N)=C/c2cccc(OC)c2OC)cc1 | – | active: 11.2 µM
CCO[C@@H]1OC(C(=O)N2CCCCCCC2)=C[C@H](c2csc3ccccc23)[C@H]1CCCO | inactive: -5.28% | –
CCOC(=O)C1=C(CN2CCCCC2)NC(=O)NC1c1cc(C)ccc1C (stereo not drawn) | inactive: -2.91% | –
CC(C)NC(=O)Nc1cccc2c1O[C@H](CN(C)C(=O)NC1CCCCC1)[C@H](C)CN([C@H](C)CO)C2=O | inactive: 1.17% | –
CC(C)(C)OC(=O)C[C@@H]1C/C=C\C[C@H](CC(=O)N[C@@H](CO)Cc2ccccc2)C(=O)N[C@H](C(C)(C)C)COC1=O | inactive: 4.08% | –
COCCN(Cc1cc2cc(C)cc(C)c2nc1Cl)C(=O)Nc1ccccc1 | – | active: 16.4 µM
CCOC(=O)[C@@H]1[C@H]2COc3ccc(Br)cc3[C@H]2N2C(=O)N(c3ccc(Cl)cc3)C(=O)[C@@]12C | inactive: 6.97% | –
CN1CCN(C(=O)C2=C[C@@H](c3coc4ccccc4c3=O)C[C@@H](OCCCCO)O2)CC1 | inactive: -0.834% | –
CCN1C(=NCCCOC(C)C)N[C@@H](CCc2ccccc2)[C@H](C(=O)NCCCOC(C)C)[C@H]1C | inactive: -2.09% | –
